Data reported in the RNAGym collection of RNA variant scans (doi:10.1093/nar/gkz1192).
Read counts are not given, so values of variants with three or more changes are uncertain.

B1: CPEB3 Ribozyme (parent)
chain: UAACAGGGGGCCACAGCAGAAGCGUUCACGUCGCAGCCCCUGUCAGAUUCUGGUGAAUCUGCGAAUUCUGCUGUAUAUCUC

Variants of: B1
Test: self-cleavage, relative activity (ratio to wild type); higher = more cleavage; in vitro, sequencing
In short: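 Barcoded CPEB3 ribozyme mutants, produced by rounds of error-prone PCR, self-cleaved while being transcribed with T7 RNA polymerase for 5 hours at 37°C and during a subsequent 15 min DNase I step before EDTA was added. Sequencing of template-switched cDNA on Illumina gave cleaved and total reads, and DNA sequencing assigned barcodes to variants. Each variant's relative activity is its cleaved/total read fraction divided by the unmutated ribozyme's fraction, averaged across three batches. A variant needed a minimum of 5 reads.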

Variant | self-cleavage
UAACAGGGGGCCACAGCAGAAGAGUUCACGUCGCAGCCCCUGUCAGAUCCUGAUGAAUCUGCGAAUUCCGCUGUAUAACUC | 0.18
UAACAGGGGGCCACAGCAGAAACGUUCGCGUCGCUGCCCCAGUCAGAUUCUGGUGAAUCUGCGAAUUCUGCUGUAUAUCUC | 0.24
UAACAGGGGGCCACAGCAGAAUCGUUCACGUCGCAGCCCCUGUCAGAUUCUGGUGAAUCUGCGUAUUCUGCCGUAUAUCUC | 0.11
UAACAGGGGGCCACAGCAGAACCGUUCACGUCGCAGCCCCUGUCAGAUUCUGGUGAAUCUGCGAAUCCUGCCGUUUACCUC | 0.03
UAACAGGGGGCCACAGCAGAAUCGCUCACGUCGCGGCCCAUGCCAGAUUCUGGUGAAUCUGCGAACUCUGCUGUAUAUCUC | 0.23
UAACAGGGGGCCACAGCAGAAACGUUCACGUCGCAGCCCCUUCCAGAUUCUGGUGAUUCUACGAAUUCUGCUGUAUAUCUC | 0.06
UAACAGGGGGCCACAGCAGAUGCGUUCACGUCGCAGCCCCUGUCAGAUUCUGGUGAAUCUGCGAAUUCUGCUGAAUACCUC | 0.58
UAACAGGGGGCCACAGCAGAAGAGUUCACGUAGCUGCCCCUGUCAGAUUCUGGCGAAUCUGCGAAUUCUGCUGUAUAUCUC | 0.16
UAACAGGGGGCCACAGCAGAAGAGUUCGCGUCGCAGCCCCUGUCAGAUUCUGGCGAAUCUGCGAAUUCUGCUGUAUAUCUC | 0.19
UAACAGGGGGCCACAGCAGAACCGUUCACGUCGCAGCCCCUGUCAGAUUCUGGUGAAUCUGCGUAUUCUGCUGAACAUCUC | 0.13
UAACAGGGGGCCACAGCAGAAGAGUUCACGACGCCGCCCCUGUCAGAUUCUAGCGAAUCUGCGAAUUUUGCUGUAUAUCUC | 0.05
UAACAGGGGGCCACAGCAGAAACGUUCACGUCGCAGCCCUUGUCAGACUCUGGUGAAUCUGCGAAUUCUGCUGUAUAUCUC | 0.25
UAACAGGGGGCCACAGCAGAAGGGCUCACGUCGCAGCCCCUGUCAGAUUCUGGUGAAUCUGCGAAUUUUGCUGUAUAACUC | 0.04
UAACAGGGGGCCACAGCAGAAUCGUUCUCGUAGCAGCCCCUGUCAGAUUCUGGUGAAUCUGCGAAUUCCGCUGUAUAUCUC | 0.11
UAACAGGGGGCCACAGCAGAAGAGUCCACGUCGCAGCCCCUGUCAGAUUCUGGUGAAUCUGCGAAUUCUGCUGUAUAUCCC | 0.51
UAACAGGGGGCCACAGCAGAAGAGUUCACGUCGCAGCCCCCGUCAGACUCUGGUGAAUCUGCGAAUUCUGCCGUAUAUCUC | 0.07
UAACAGGGGGCCACAGCAGAAUCGUCCACGUCGCUGCCCCUGUCAGAUUCCGGUGAAUCAGCGAAUUCUGCUGUAUAUCCC | 0.12
UAACAGGGGGCCACAGCAGAACCGUUCACGCCGCAGCCCCUGUCAGAUUCUGGUGAACCUGCGGAUUCUGCUGUAUAUCAC | 0.06
UAACAGGGGGCCACAGCAGAAGAGUUCACGUCGCAGCCCCUGUCGGAUUGUGGAGAGUCUGCGAAUUCUGCUGUAUAUCUC | 0.14
UAACAGGGGGCCACAGCAGAAGGGUUCACGUCGCAGCCCCUGUCAGGUUCUGGUGAAUCUGCGAAUUCUGCUGUAUAUCGC | 0.07
UAACAGGGGGCCACAGCAGAAUCGUUCAGGUCGCAGCCCCUGUCAGAUUCUGGUGAUUCUGCGAAUUCCGCCGUAUAUCUC | 0.07
UAACAGGGGGCCACAGCAGAAGAGUUCACGUCGCACCCCCUGUCAGAUUCUGGUGAAUCUGCGAAUUCUGCUGUAUGUCUC | 0.19
UAACAGGGGGCCACAGCAGAAACGUUCACGUCGCUGCCCCUGUCAGAUUCUGGUGAACCUACGAAUUCCGCUGUAUACCUC | 0.05

Variant | self-cleavage
UAACAGGGGGCCACAGCAGAUGCGUUCACGUCGCAGCCCCUGUCAGAUUCUGGUGAAUCCGCGUAUACCGCUGUAUAUCUC | 0.12
UAACAGGGGGCCACAGCAGAAGGGUUCAAGUCGCAGCCCCUGUCAGAUUCUGGUGAAUCUGCGAAUUCUGCUGUACAACUC | 0.31
UAACAGGGGGCCACAGCAGAAACGUUCACGUCGCAACCCCUGUCAGAUUCUGGUGAAUCUGCGAAUUCUGCUGUAUUUCUC | 0.07
UAACAGGGGGCCACAGCAGAAACCUUCACGUCGCAGCCCCUGUCAGAUUCUGGAGAAUCUGCGAAUUCUGCUGUAUAUCUC | 0.13
UAACAGGGGGCCACAGCAGAAACGCUCACGUCGCAGCCCCUGUCAGAUUCUGGUGAAUCUGCGAGUUCUGCCGUAUAUCCC | 0.08
UAACAGGGGGCCACAGCAGAAGAGUUCACGUCGCAGUCCCUGUUAGAUUCUGGUGAAUCUGCGAAUUCUGCUGUAUGUCUC | 0.1
UAACAGGGGGCCACAGCAGAAACGUUCACCUCGCAGCCCCUGCCAGAUUCUGGUGGAUCUGCGAAUACUGCUGUAUAUCUC | 0.08
UAACAGGGGGCCACAGCAGAAGGGUUCGCGUCGCAGCCCCAGUCAGAUUCUGGUGGAUCUGCGAAUUCUGCGGUAUAUCUC | 0.05
UAACAGGGGGCCACAGCAGAAGGGUUCACGUCGCAGCCCCAGUCUGAUUCUGGAGAAUCUGCGAAUUCUGCUGUAUGACUC | 0.06
UAACAGGGGGCCACAGCAGAAGAGUUCACGUCGCUGCCCCUGUCAGAUACUGGUGAAUCUGCGAAUUCGGCGGUAUAACUC | 0.07
UAACAGGGGGCCACAGCAGAAGGGUUCACGUCGCAGCCCCUGUCAGAUUCUGGUGGGUCUGCGAAUUCUGCUGUAUAUCUC | 0.08
UAACAGGGGGCCACAGCAGAAGGGUCCACGUCGCAGCCCCUGUCAGAUUCUGGUGAACCUGCGAAUUCUGCUGUAUAUCUC | 0.23
UAACAGGGGGCCACAGCAGAAGGGGUCACGUCGCAGCCCCUGUCAGGUUCUGGUGAAUCUGCGAAUUCUGCUGUAUAUCUC | 0.23
UAACAGGGGGCCACAGCAGAUGCGUUCACGUCGCAGCCCCUGUCAGAUUCUGGUGAAUCUGCGAAUUCAGUUGUAUAUCCC | 0.05
UAACAGGGGGCCACAGCAGAAUCGUCCACGUCGCAGCCCCUGUCGGAUUCUGGUGAAUCUGCGAAUUCUGCUGUAUAUCUC | 0.44
UAACAGGGGGCCACAGCAGAACCGUUCACGUCGCAGCCCCUGCCAGAUUCUGGUGAAUCCGCGAAUUCUGCCGUAUAUCUC | 0.07
UAACAGGGGGCCACAGCAGAACCGUUCACGUCGCAGCCCCUGUCAGAUUCUGGUGAAUCAGCGAAUUCGGCUGUAUAUCUC | 0.14
UAACAGGGGGCCACAGCAGAAUCGUUCGCGUCGCCGCCCCUGUCGGAUUCUGGUGGAUCUGCGAAUUCUGCUGUAUAUUUC | 0.04
UAACAGGGGGCCACAGCAGAAUCGUUCACGUCGCAGCCCCUGUCAGAGACUAGUGAACCUGCGAAUUCAGCUGUAUAUCUC | 0.07
UAACAGGGGGCCACAGCAGAAGAGUUCACGUCGCUGCCCCAGUCGGAUUCUGGUGAAUCUGCGAAUUCUGCGGUAUAUCUC | 0.67
UAACAGGGGGCCACAGCAGAAUCGUUCACGUCGCAGCCCCUGUCAGAUUCUGGCGGACCUGCGAAUUCUGCUGUAUAUCUC | 0.07
UAACAGGGGGCCACAGCAGAUGCGUUCACGUCGCAGCCCCUGUCAGAUUCUGGUGAACCUGCGAAUCCUGCCGUAUAUCUC | 0.29
UAACAGGGGGCCACAGCAGAAUCGCUCACGUCGCAGCCCCUGUCAGAUUCUGGUGGAUCUGCGAAUUCUGCUACAUAUCUC | 0.11

Variant | self-cleavage
UAACAGGGGGCCACAGCAGAAGAGUUCACGUCGAAGCCCCUGUCAGAUUCUGGUGAUUCUGCGAAUUCCGCUGUAUAUCUC | 0.13
UAACAGGGGGCCACAGCAGAAUCGUUCACGUCGCAACCCCCGUCAGAUUCUGGUGAAUCUGCGAAUUCUGCUGUAUAUCUC | 0.08
UAACAGGGGGCCACAGCAGAAGAGUUCACGUCGCAGCCCCUGUCAGAUUCUGGUGAAUCUGCGAAUUCCGCUGUGUAUCUC | 0.13
UAACAGGGGGCCACAGCAGAAGGGUUCACGUCGCAGCCCCAGUCAGGUUCUGGUGAAUCUGCGAAUUCUGCUGUAUAUCUC | 0.48
UAACAGGGGGCCACAGCAGAACCGUUCACGUCGAAGCCCCUGUCAGAUUCUGGUGAAUCUGCGAUUUCUGCUGCAUAUCUC | 0.11
UAACAGGGGGCCACAGCAGAAUCGUACACGUCGCAGCCCCUGUCAGAUUCUGGUGAAUCCGCGGAUUCUGCUGUAUAUCCC | 0.1
UAACAGGGGGCCACAGCAGAAUCGUUCACGUCGCAGCCCCUGUCAGAUUCUGGUGAAUCUGCGAAUUCAGCUGUAUAUUUC | 0.16
UAACAGGGGGCCACAGCAGAAGAGUUCACGUCGCAGCCCCUGUCAGAUUCCUGAGAAUCUGCGAAUCCUGCUGUAUAUCAU | 0.05
UAACAGGGGGCCACAGCAGAAUCGUUCGCGUCGCAGCCCCUGUCAGAUCCUGGUGAAUCUGCGAAUUCUGCUGUAUUUCUC | 0.12
UAACAGGGGGCCACAGCAGAUGCGUUCACGUCGCAGCCCCUGUCAGAUUCUGGUGAAUCCGCGAAUCCUGCUGUAUAUCUC | 0.14
UAACAGGGGGCCACAGCAGAAUCGUUCACGUCGCAGCCCCUGCCGGAUUCUGGUGAAUCUGCGAAUUCUGCUGUAUAUCUC | 0.22
UAACAGGGGGCCACAGCAGAAGAGUUCACGCCGCAGCCCCUGCCAGAUUCUGGUGAAUCUGCGAAUUCUGCCGUAUAUCUC | 0.02
UAACAGGGGGCCACAGCAGAAGGGUUCACGGCGCAGCCCCUGUCAGAUUCUGGUGAAUCUGCGAAUUCUGCUGCAUAUCUC | 0.22
UAACAGGGGGCCACAGCAGAAGAGUUCACGUCGCAGCCCCUGCCAGAUUCUGGCGAAUCUGCGAAUUCUGCUGUAUAUCUC | 0.09
UAACAGGGGGCCACAGCAGAAGGGUUCACGGCGCAGCCCCUGCCAGAUUCCAGUGAAUCUGCGAAUUCUGCUGUAUAUCUC | 0.05
UAACAGGGGGCCACAGCAGAAACGUUCGCGUCGCAGCCCCUGUCAGAUACUGGUGAAUCUGCGAAUUCUGCUGUAUAUCUC | 0.19
UAACAGGGGGCCACAGCAGAAACGUUCACGUCGCAGCCCCUGUCAGAUUCUGGUGAACCUGCGAAUUCAGCUGUAUAUCUC | 0.06
UAACAGGGGGCCACAGCAGAAGGGUUCACGUCGGAGCCCCUGUCAGAUUCUGGUGAAUCUGCGAAUUGUGCUGUAUAUCUC | 0.08
UAACAGGGGGCCACAGCAGAAGGGUUCACGACGCAGCCCCUGUCAGAUUCUGGUGAAUCUGCGAAUUCUGCGGUAUAUCCC | 0.04
UAACAGGGGGCCACAGCAGAAGAGUUCACGACGCAGCCCCUGUCAGAUUCUGGUGGAUCCGCGAAUUCUGCUGUAUAUCUC | 0.09
UAACAGGGGGCCACAGCAGAUGCGUUCACGUCGCAGCCCCUGUCAGAUUCUGGUGAAUCUGCGAAUUCUGCUGAAUGUCUC | 0.6
UAACAGGGGGCCACAGCAGAAGGGUUCUCGUCGCAGCCCCUGUCAGAUACUGGAGAAUCUGCGAAUUCUGCUGUAUACCUC | 0.14
